Numbering of substitutions follows the chain as printed; changes in the protein carry UniProt numbers. The list shows a part of the results.

T1: RBFOX1 RRM (Homo sapiens, UniProt Q9NWB1 109-208)
T1 sequence: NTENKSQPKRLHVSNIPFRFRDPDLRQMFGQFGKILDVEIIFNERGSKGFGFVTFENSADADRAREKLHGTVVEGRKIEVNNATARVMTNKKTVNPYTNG

B1: UUGAACA (DNA:RNA)
RNA: GGGAGACCGGAAUUCAGAUUGUCCUUGAACAUUAAAUCCCGUCGUAGCCACCA
DNA 1: CAATCTGAATTCCGGTCTCCC
DNA 2: TGGTGGCTACGACGGGATT
B2: CCUAAAC (DNA:RNA)
RNA: B1 RNA with U25C, U26C, G27U, C30A, A31C
DNA 1: CAATCTGAATTCCGGTCTCCC
DNA 2: TGGTGGCTACGACGGGATT
B3: ACACUAA (DNA:RNA)
RNA: B1 RNA with U25A, U26C, G27A, A28C, A29U, C30A
DNA 1: CAATCTGAATTCCGGTCTCCC
DNA 2: TGGTGGCTACGACGGGATT
B4: GGCUAGC (DNA:RNA)
RNA: B1 RNA with U25G, U26G, G27C, A28U, C30G, A31C
DNA 1: CAATCTGAATTCCGGTCTCCC
DNA 2: TGGTGGCTACGACGGGATT
B5: AUAACGG (DNA:RNA)
RNA: B1 RNA with U25A, G27A, A29C, C30G, A31G
DNA 1: CAATCTGAATTCCGGTCTCCC
DNA 2: TGGTGGCTACGACGGGATT
B6: UCAUAAA (DNA:RNA)
RNA: B1 RNA with U26C, G27A, A28U, C30A
DNA 1: CAATCTGAATTCCGGTCTCCC
DNA 2: TGGTGGCTACGACGGGATT
B7: GGGGUGC (DNA:RNA)
RNA: B1 RNA with U25G, U26G, A28G, A29U, C30G, A31C
DNA 1: CAATCTGAATTCCGGTCTCCC
DNA 2: TGGTGGCTACGACGGGATT
B8: GGCUUAA (DNA:RNA)
RNA: B1 RNA with U25G, U26G, G27C, A28U, A29U, C30A
DNA 1: CAATCTGAATTCCGGTCTCCC
DNA 2: TGGTGGCTACGACGGGATT
B9: AGAGAAC (DNA:RNA)
RNA: B1 RNA with U25A, U26G, G27A, A28G, C30A, A31C
DNA 1: CAATCTGAATTCCGGTCTCCC
DNA 2: TGGTGGCTACGACGGGATT
B10: GUUAACG (DNA:RNA)
RNA: B1 RNA with U25G, G27U, A31G
DNA 1: CAATCTGAATTCCGGTCTCCC
DNA 2: TGGTGGCTACGACGGGATT
B11: AUCCGGU (DNA:RNA)
RNA: B1 RNA with U25A, G27C, A28C, A29G, C30G, A31U
DNA 1: CAATCTGAATTCCGGTCTCCC
DNA 2: TGGTGGCTACGACGGGATT
B12: CUGACAC (DNA:RNA)
RNA: B1 RNA with U25C, A29C, C30A, A31C
DNA 1: CAATCTGAATTCCGGTCTCCC
DNA 2: TGGTGGCTACGACGGGATT
B13: AUUAAAC (DNA:RNA)
RNA: B1 RNA with U25A, G27U, C30A, A31C
DNA 1: CAATCTGAATTCCGGTCTCCC
DNA 2: TGGTGGCTACGACGGGATT
B14: AGAGUGC (DNA:RNA)
RNA: GGGAGACCGGAAUUCAGAUUGUCCAGAGUGCUUAAAUCCCGUCGUAGCCACCA
DNA 1: CAATCTGAATTCCGGTCTCCC
DNA 2: TGGTGGCTACGACGGGATT
B15: ACGUUUC (DNA:RNA)
RNA: B14 RNA with G26C, A27G, G28U, G30U
DNA 1: CAATCTGAATTCCGGTCTCCC
DNA 2: TGGTGGCTACGACGGGATT
B16: CGGGUUU (DNA:RNA)
RNA: B14 RNA with A25C, A27G, G30U, C31U
DNA 1: CAATCTGAATTCCGGTCTCCC
DNA 2: TGGTGGCTACGACGGGATT
B17: GGCGUCG (DNA:RNA)
RNA: B14 RNA with A25G, A27C, G30C, C31G
DNA 1: CAATCTGAATTCCGGTCTCCC
DNA 2: TGGTGGCTACGACGGGATT
B18: AAUUUAG (DNA:RNA)
RNA: B14 RNA with G26A, A27U, G28U, G30A, C31G
DNA 1: CAATCTGAATTCCGGTCTCCC
DNA 2: TGGTGGCTACGACGGGATT
B19: AGGAAAG (DNA:RNA)
RNA: B1 RNA with U25A, U26G, C30A, A31G
DNA 1: CAATCTGAATTCCGGTCTCCC
DNA 2: TGGTGGCTACGACGGGATT
B20: GGGCUUU (DNA:RNA)
RNA: B14 RNA with A25G, A27G, G28C, G30U, C31U
DNA 1: CAATCTGAATTCCGGTCTCCC
DNA 2: TGGTGGCTACGACGGGATT
B21: GUCGUGA (DNA:RNA)
RNA: B14 RNA with A25G, G26U, A27C, C31A
DNA 1: CAATCTGAATTCCGGTCTCCC
DNA 2: TGGTGGCTACGACGGGATT
B22: GGUGUGU (DNA:RNA)
RNA: B14 RNA with A25G, A27U, C31U
DNA 1: CAATCTGAATTCCGGTCTCCC
DNA 2: TGGTGGCTACGACGGGATT
B23: ACACGGA (DNA:RNA)
RNA: B14 RNA with G26C, G28C, U29G, C31A
DNA 1: CAATCTGAATTCCGGTCTCCC
DNA 2: TGGTGGCTACGACGGGATT
B24: GUGCCAC (DNA:RNA)
RNA: B1 RNA with U25G, A28C, A29C, C30A, A31C
DNA 1: CAATCTGAATTCCGGTCTCCC
DNA 2: TGGTGGCTACGACGGGATT
B25: UUCAACU (DNA:RNA)
RNA: B1 RNA with G27C, A31U
DNA 1: CAATCTGAATTCCGGTCTCCC
DNA 2: TGGTGGCTACGACGGGATT
B26: GAACCUG (DNA:RNA)
RNA: B14 RNA with A25G, G26A, G28C, U29C, G30U, C31G
DNA 1: CAATCTGAATTCCGGTCTCCC
DNA 2: TGGTGGCTACGACGGGATT
B27: CAUUGAG (DNA:RNA)
RNA: GGGAGACCGGAAUUCAGAUUGUCCCAUUGAGUUAAAUCCCGUCGUAGCCACCA
DNA 1: CAATCTGAATTCCGGTCTCCC
DNA 2: TGGTGGCTACGACGGGATT
B28: UAGUCAA (DNA:RNA)
RNA: B27 RNA with C25U, U27G, G29C, G31A
DNA 1: CAATCTGAATTCCGGTCTCCC
DNA 2: TGGTGGCTACGACGGGATT
B29: GGGUACU (DNA:RNA)
RNA: B1 RNA with U25G, U26G, A28U, A31U
DNA 1: CAATCTGAATTCCGGTCTCCC
DNA 2: TGGTGGCTACGACGGGATT
B30: ACACAUG (DNA:RNA)
RNA: B14 RNA with G26C, G28C, U29A, G30U, C31G
DNA 1: CAATCTGAATTCCGGTCTCCC
DNA 2: TGGTGGCTACGACGGGATT
B31: UCUUUGC (DNA:RNA)
RNA: B14 RNA with A25U, G26C, A27U, G28U
DNA 1: CAATCTGAATTCCGGTCTCCC
DNA 2: TGGTGGCTACGACGGGATT

The target in the test is T1, RBFOX1 RRM. The test can be described thus: EMSA; HiTS-Eq, 1 nM pool, 10 min; buffer printed only for the single-RNA assays: 10 mM Tris pH 7.5, 150 mM NaCl, 3.4 mM EDTA, 0.001% NP-40, 30 C. As to conditions: tags: His6 N-terminal (pET28a); label: 5' 32P. In short, it runs like this: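 Purified RbFox RRM (wild type or mutant) was equilibrated for 10 min in 50 µL with 1 nM of a 5′-radiolabelled pool of RNA with 7 randomized nucleotides, its flanks annealed to DNA oligonucleotides, across increasing protein concentrations. Free RNA was separated by 8% native PAGE, excised, reverse-transcribed, PCR-barcoded and sequenced on an Illumina HiSeq 2500. Relative association constants came from read-count changes of each variant against the control reaction, normalised to the cognate motif.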
Regarding B1, the binding signal was 0.00639 KA relative to UGCAUGU.

On to B2, for which the binding signal was 0.0015 KA relative to UGCAUGU. With B3, the binding signal was 0.00225 KA relative to UGCAUGU. For B4, the binding signal is 0.0184 KA relative to UGCAUGU. With B5, the binding signal was 0.00478 KA relative to UGCAUGU. As for B6, the binding signal is 0.000782 KA relative to UGCAUGU.

As to B7, the binding signal was 0.0467 KA relative to UGCAUGU. The figure for B8 is 0.00543 KA relative to UGCAUGU; for B9 it is 0.00579 KA relative to UGCAUGU. B10: the binding signal was 0.0101 KA relative to UGCAUGU.

With B11, the binding signal was 0.00957 KA relative to UGCAUGU.

In the case of B12, the binding signal was 0.00724 KA relative to UGCAUGU. The figure for B13 is 0.0009 KA relative to UGCAUGU; for B14 it is 0.0185 KA relative to UGCAUGU; for B15 it is 0.00793 KA relative to UGCAUGU. The figure for B16 is 0.0393 KA relative to UGCAUGU; for B17 it is 0.0143 KA relative to UGCAUGU; for B18 it is 0.0051 KA relative to UGCAUGU.

Turning to B19, the binding signal was 0.0184 KA relative to UGCAUGU. With B20, the binding signal is 0.0244 KA relative to UGCAUGU. As for B21, the binding signal is 0.017 KA relative to UGCAUGU. For the molecule B22, the binding signal is 0.0173 KA relative to UGCAUGU. In the case of B23, the binding signal was 0.0022 KA relative to UGCAUGU. Take B24: the binding signal is 0.0082 KA relative to UGCAUGU. Under B25 stands 0.00328 KA relative to UGCAUGU; under B26, 0.014 KA relative to UGCAUGU. Under B27 stands 0.0155 KA relative to UGCAUGU; under B28, 0.00758 KA relative to UGCAUGU.

B29: the binding signal was 0.0165 KA relative to UGCAUGU. Turning to B30, the binding signal is 0.00404 KA relative to UGCAUGU. As to B31, the binding signal is 0.0199 KA relative to UGCAUGU.

Source of the values: PMC9911399, “Two distinct binding modes provide the RNA-binding protein RbFox with extraordinary sequence specificity”.
